PubChem BioAssay AID686978 (National Center for Advancing Translational Sciences (NCATS), 2013)
Values joined by “and” are separate entries in the source; they are usually repeats but may differ in a detail not shown here. Equal values may be shown once. About 64,000 (15%) of roughly 420,000 compounds were called active. This list was built around the results that the source calls inconclusive (neither active nor inactive); the mix of calls is not that of the screen. Calls follow the shape of the dose curve; as a rule, active = well fitted inhibition curve with a large enough effect; inconclusive = small, poorly fitted or top-dose-only effect; inactive = flat fitted curve, though single readings scatter. Potencies of inconclusive entries are doubtful fits and often do not repeat.

Test: qHTS for Inhibitors of human tyrosyl-DNA phosphodiesterase 1 (TDP1): qHTS in cells in absence of CPT; also: nearly all actives have a fitted effect of over 55% in size
Conditions: DT40 Tdp1-/- hTDP1 cells, no CPT, ATP luminescence, 48 h; activity change, negative = growth inhibition: at 46.2 µM (top of the series) unless noted
Outline: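 No-CPT arm: Tdp1-/-;hTDP1 DT40 cells (400/well) plus compounds, incubated ≥48 hr at 37 °C. Readout CellTiter-Glo luminescence.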
% is scaled to controls: 0 for no effect and ±100 for the full control effect; potency is read from the fitted curve at half-maximal effect; tags tell the direction and shape of the fitted curve.

| Compound | Potency | activity change, negative = growth inhibition |
| --- | --- | --- |
| COc1cc2c(cc1OC)CN(C(=O)c1ccc(OC)c([N+](=O)[O-])c1)CC2 | inconclusive: 29.1 µM [inhibitor, single point] | – |
| O=C(Nc1ccc(F)cc1)C(c1cc2ccccc2o1)N1CCN(c2ccncc2)CC1 (configuration not stated) | active: 23.1 µM | – |
| Oc1ccc2ccccc2c1CNc1ccccc1 | inconclusive: 18.4 µM [inhibitor, partial curve] | – |
| Cc1nnsc1-c1nnc(SCC(=O)c2ccccc2)n1C1CC1 | inconclusive: 0.0164 µM [inhibitor, full curve, poor fit] | – |
| CCCCn1c(N)c(N(CCOC)C(=O)c2ccc(NC3CC3)c([N+](=O)[O-])c2)c(=O)[nH]c1=O | – | inactive: 1.23% |
| COc1cc(C2Nc3ccc4ncccc4c3C3=C2C(=O)CCC3)cc(OC)c1OC (configuration not stated) | inconclusive: 29.1 µM [inhibitor, single point] | – |
| CCc1ccccc1NC(=O)Nc1nnc(N(C)Cc2ccccc2)s1 | inconclusive: 25.9 µM [inhibitor, single point] | – |
| CC(=O)N(C)c1ccc(N=Nc2ccc3ncccc3c2)cc1 | active: 14.6 µM | – |
| CCC(C(=O)O/N=C(\N)c1ccc(C)cc1)c1ccccc1 (configuration not stated) | – | inconclusive: -33.5% [inhibitor] |
| COc1ccc(NC(=O)c2cc(S(=O)(=O)N3CCCCCC3)cn2C)cc1Cl | inconclusive: 18.4 µM [inhibitor, single point] | – |
| CCN(CC)CCN(C(=O)c1cc2c(ccc3ccccc32)oc1=O)c1nc2cc3c(cc2s1)OCCO3 | active: 20.6 µM | – |
| OC(c1cc(C(F)(F)F)nc2c(Cl)cc(Cl)cc12)C1CCCCN1 (configuration not stated) | inconclusive: 16.4 µM [inhibitor, single point] | – |
| Cn1c(=O)c2c(nc(NN=C3CCCCC3)n2C)n(C)c1=O | inconclusive: 29.1 µM [inhibitor, single point] | – |
| O=C(/C=C/[C@H]1O[C@@H](n2ccc(=O)[nH]c2=O)[C@H](O)[C@@H]1O)NCc1cccs1 | – | inactive: 7.31% |
| Cc1ccc(NCc2nnc(SCC(=O)N(Cc3ccccc3)C(C)(C)C)o2)c(C)c1 | inconclusive: 23.1 µM [inhibitor, single point] | – |
| Clc1ccc(N2CCN(c3ncnc4c3cnn4-c3ccccc3)CC2)cc1Cl | inconclusive: 3.26 µM [inhibitor, partial curve, poor fit] | – |
| O=C(Cc1ccccc1)NCCn1ccc2ccccc21 | inconclusive: 29.1 µM [inhibitor, single point] | – |
| Cc1noc(C)c1-c1nc(NCc2ccccc2)c2ccccc2n1 | inconclusive: 29.1 µM [inhibitor, single point] | – |
| CCOC(=O)C1CCN(Cc2cc(=O)oc3c(C)c(C)ccc23)CC1 | inconclusive: 23.1 µM [inhibitor, partial curve, poor fit] | – |
| CCCc1nc2cc(C)c(Br)c(C)n2c1Cc1ccccc1OC | active: 14.6 µM | – |
| COCCNC(=S)Nc1ccc(N2CCCCC2)cc1 | inconclusive: 29.1 µM [inhibitor, single point] | – |
| CN(Cc1cccc(F)c1)C(=O)c1ccc(S(=O)(=O)N2CCCCCC2)cc1 | inconclusive: 29.1 µM [inhibitor, single point] | – |
| CCOc1cc(/C=C2\SC(N3CCCC(C)C3)=NC2=O)ccc1O (configuration not stated) | inconclusive: 25.9 µM [inhibitor, single point] | – |
| COc1ccc(COC(=O)C2=C(C)NC(=O)NC2c2cccc(Br)c2)cc1 (configuration not stated) | inconclusive: 29.1 µM [inhibitor, single point] | – |

| Compound | Potency | activity change, negative = growth inhibition |
| --- | --- | --- |
| Cc1cccc(N2CCN(S(=O)(=O)c3ccc(-c4cc(C(F)(F)F)on4)s3)CC2)c1C | – | inactive: -14.2% |
| CC(C)Cc1nc(N2CCOCC2)c(C#N)c2c1CCC2 | inconclusive: 4.61 µM [inhibitor, full curve, poor fit] | – |
| Nn1c(COc2ccc(Cl)cc2)nc2ccccc2c1=O | inconclusive: 8.2 µM [inhibitor, partial curve] | – |
| Cc1onc(-c2ccccc2)c1C(=O)c1ccccc1 | inconclusive: 29.1 µM [inhibitor, single point] | – |
| O=C(COC(=O)c1cc(S(=O)(=O)N2CCOCC2)ccc1F)NCc1ccc2c(c1)OCO2 | – | inactive: -0.33% |
| Cc1nc(N)nc(N)c1/C=C/C(C)(C)c1ccc(Cl)cc1 | active: 0.0326 µM | – |
| C=CC(c1ccccc1)C(C(=O)c1ccccc1)N(C)C (configuration not stated) | – | inactive: -29.6% |
| O=C(c1ccc(C23CC4CC(CC(C4)C2)C3)o1)N1CCOCC1 | active: 23.1 µM | – |
| O=C(COc1ccc(Br)cc1)NCc1ccccn1 | – | inactive: -19.1% |
| O=C(CN1CCOCC1)Nc1ccc(NC(=O)c2ccccc2F)cc1 | – | inactive: -17.4% |
| O=C(c1cccc(N2C(=O)C3C4C=CC(C4)C3C2=O)c1)N1CCCCCC1 (configuration not stated) | inconclusive: 29.1 µM [inhibitor, single point] | – |
| COCCNC(=O)c1cc2c(Br)ccc(Br)c2nc1N | – | inactive: -7.33% |
| COc1cc(S(=O)(=O)N2CCCCC2)ccc1NC(=O)c1ccccc1Cl | active: 16.4 µM | – |
| O=C(C1CCCN(S(=O)(=O)c2ccc(Br)s2)C1)N1CCN(c2cccc(Cl)c2)CC1 (configuration not stated) | active: 20.6 µM | – |
| COc1ccc(-c2nc3cnc(Oc4cccc(Cl)c4)nc3n(CCC#N)c2=O)cc1 | – | inactive: -10.9% |
| Cn1c(=O)c2c(nc(CN3CCOCC3)n2CCCO)n(C)c1=O | – | inactive: -6.24% |
| CCOc1ccccc1-c1cc(C(=O)Nc2ccc(C(=O)O)cc2)c2ccccc2n1 | – | inactive: -28.5% |
| COc1ccc(C2=NN(Cc3c(F)cccc3Cl)C(=O)CC2)cc1 | inconclusive: 8.2 µM [inhibitor, partial curve] | – |
| CCC1CCCCN1S(=O)(=O)c1ccc(S(=O)(=O)N2CCN(S(=O)(=O)CC)CC2)cc1 (configuration not stated) | inconclusive: 29.1 µM [inhibitor, single point] | – |
| COCCNC(=O)/C(C#N)=C/c1ccc(O)cc1 | – | inactive: -14.2% |
| C[C@@H]1CN([C@H](C)CO)C(=O)CCCn2nncc2CO[C@H]1CN(C)Cc1ccccc1C(F)(F)F | active: 20.6 µM | – |
| COc1ccccc1C1Nc2c(sc3nc(C)cc(C)c23)C(=O)N1c1ccccc1 (configuration not stated) | inconclusive: 20.6 µM [inhibitor, single point] | – |
| COc1ccc(C(=O)/C=C/c2ccccc2)cc1 | active: 23.1 µM | – |
| Cc1ccccc1-c1nc2cc(Cl)ccc2o1 | – | inactive: 1.39% |

| Compound | Potency | activity change, negative = growth inhibition |
| --- | --- | --- |
| COc1cccc(C2C(C(=O)Nc3ccc(Cl)cc3)=C(C)Nc3nc4ccccc4n32)c1 (configuration not stated) | – | inactive: -4.16% |
| CCC(C)Sc1oc(-c2ccco2)nc1S(=O)(=O)c1ccc(C)cc1 (configuration not stated) | inconclusive: 29.1 µM [inhibitor, single point] | – |
| Cc1ccc(C(=O)COC(=O)COc2ccccc2[N+](=O)[O-])s1 | – | inactive: -6.81% |
| OCc1cc(C(O)CNCCCCCCOCCCCc2ccccc2)ccc1O (configuration not stated) | active: 5.96 µM and active: 9.44 µM and active: 13 µM | – |
| CCNC(=O)N1CCC(n2nccc2NC(=O)CCCc2ccccc2)CC1 | – | inactive: 30.9% |
| C#CCN1C(C)=C(C(=O)OC)C(c2cccc([N+](=O)[O-])c2)C(C(=O)OCC)=C1C (configuration not stated) | inconclusive: 23.1 µM [inhibitor, partial curve] | – |
| COc1cc(/C=N/NC(=O)C(=O)/C=C2\NC(C)(C)Cc3ccccc32)ccc1O | inconclusive: 29.1 µM [inhibitor, single point] | – |
| CCN1CCN(c2nc(Nc3ccc(C)c(C)c3)nc(N)c2[N+](=O)[O-])CC1 | active: 23.1 µM | – |
| COc1ccc2c(c1)c1c(c(=O)n(-c3ccc(C)cc3)c(=O)n1CC(=O)NCc1ccc(C)cc1)n2C | active: 6.51 µM | – |
| Cc1ccc(-c2onc3ccc(C=O)cc23)cc1 | active: 18.4 µM | – |
| COc1ccc(-c2nn(-c3ccccc3)cc2CNCc2cccnc2)c(F)c1 | – | inactive: -27.3% |
| COCCNC(=O)C12CC3CC(C1)CC(c1ccccc1)(C3)C2 | inconclusive: 29.1 µM [inhibitor, single point] | – |
| CCOC(=O)N1CCC(NC(=O)c2cc(COc3c(C)cccc3C)on2)CC1 | inconclusive: 16.4 µM [inhibitor, partial curve] | – |
| NC(=O)C1CCN(C(=O)c2cc(-c3ccc(Cl)cc3)nc3ccccc23)CC1 | inconclusive: 29.1 µM [inhibitor, single point] | – |
| O=C(Nc1cccc(/C=C/c2ccccn2)c1)c1cc(Cl)ccn1 | inconclusive: 25.9 µM [inhibitor, single point] | – |
| C=CC[C@]12CCc3ccccc3C1N(c1ccc(C(=O)OCC)cc1)C2=O (some centres not stated) | inconclusive: 29.1 µM [inhibitor, single point] | – |
| Cc1cc(C)nc(NC(N)=NCCc2ccccc2)n1 | active: 2.91 µM | – |
| Cc1ccc(S(=O)(=O)Oc2cccc([N+](=O)[O-])c2)cc1 | inconclusive: 13 µM [inhibitor, single point] | – |
| CCNC(=S)N(CCc1c(C)[nH]c2ccc(Cl)cc12)Cc1cccnc1 | inconclusive: 29.1 µM [inhibitor, single point] | – |
| O=C(O)Cc1sc(-c2ccccc2)nc1-c1ccc(Cl)cc1 | inconclusive: 33.5 µM [inhibitor, single point] and inconclusive: 29.1 µM [inhibitor, single point] | – |
| COCCNC(=O)C1(C)CCCN(C(=O)c2cccc(Cl)c2)C1 (configuration not stated) | – | inactive: -1.71% |
| NS(=O)(=O)c1ccc(CCNC(=O)Cn2c(-c3cccs3)cc3ccccc32)cc1 | inconclusive: 25.9 µM [inhibitor, single point] | – |
| CCCCC(=O)Nc1nn(CC(C)C)c2nc3ccccc3cc12 | inconclusive: 18.4 µM [inhibitor, single point] | – |
| Cc1cc2c(cc1C)NC(CC(=O)Nc1cccc(Cl)c1)C(=O)N2 (configuration not stated) | inconclusive: 20.6 µM [inhibitor, single point] | – |
